Source: PMC12136788
This is one part of the list.

B1: chr20:3963869:3963970:-|CDS|ENSG00000101236|unk|FALSE|bound_elsewhere (ssRNA)
RNA: GGGAGUUCUACAGUCCGACGAUCAAUCUGCCUCUCAACAUAUAUAUUGUGGUUUUUGGUACUGCUAUAUUUGUCUUCAUCCUUAGUUUACUCUUCUGUUGCUACUUGAUUAGGUAACCAAUUUUCAUUCUAUGUUACUUCAAACAACAGAGGAUUGAGCAUCA
B2: chr20:31664451:31666086:-|three_prime_utr|ENSG00000171552|control|control|control (ssRNA)
RNA: GGGAGUUCUACAGUCCGACGAUCAUGCAGCCCAUGCCCACCUGCCCAUCACAGGGUUGGGCCCAGAUCUGGUCCCUUGCAGCUAGUUUUCUAGAAUUUAUCACACUUCUGUGAGACCCCCACACCUCAGUUCCCUUGGCCUCACAACAGAGGAUUGAGCAUCA
B3: chr17:82078764:82078865:-|3pUTR|ENSG00000169710|msi1_unk|total|mutant (ssRNA)
RNA: GGGAGUUCUACAGUCCGACGAUCCCGUGGGGUCUGCGCUUGGUCUUUCUGUGCUUGGAUUUGCAUAUUUAUUGCAUUGCUGGCCGAGACCCCCAGGCCUGUCCACCCUGCCAAGACUCCUCAGGCAGCGUGUGGGUCCCGCACCAACAGAGGAUUGAGCAUCA
B4: chrX:131089436:131089558:+|3pUTR|ENSG00000147256|unk|total|mutant (ssRNA)
RNA: GGGAGUUCUACAGUCCGACGAUCGGGAAACCUCAAGUGCCGGUCUAAUCCGUGUUUCUGGGAUCCAAAGUCCGAGGAAAAUUCCGAUUUUAUUGCCUGGAUCUGCUUUAAAGACAAUUGGUGUUUACACCCUCUUGUCAGCAACAACAGAGGAUUGAGCAUCA
B5: chr10:69104613:69104714:+|3pUTR|ENSG00000122862|unk|FALSE|unique (ssRNA)
RNA: GGGAGUUCUACAGUCCGACGAUCACAUAUUUUACAGGGUGGAGUGUACUAUAUACUAUUACCUUUGAAUGUGUUUGCAGAGCUAGUGGAUGUGUUUGUCUACAAGUAUGAUUGCUGUUACAUAACACCCCAAAUUAACUCCCACAACAGAGGAUUGAGCAUCA
B6: ENSG00000156687:stop:overlap|stop_codon|ENSG00000156687|stop_codon|NA|stop_codon (ssRNA)
RNA: GGGAGUUCUACAGUCCGACGAUCACAUUUCAGAAUCCCAGCUUGAUGAAGCCGACUUCAACUACAGCAGGCAAAAUGGACUCUAGUCCACUUCCUCCCAUGAGACAGAGUGAUGGCCAGCUUGGGGACAUUUGCUUUAAAUGGCAACAGAGGAUUGAGCAUCA
B7: chr7:5606511:5606625:+|3pUTR|ENSG00000075618|msi1_unk|FALSE|overlapping (ssRNA)
RNA: GGGAGUUCUACAGUCCGACGAUCGGGUGUCUUGGUCUUUUAUUUUUUGUAAGUGUCAUUUGUAUAACUCUAAACGCCCAUGAUAGUAGCUUCAAACUGGAAAUAGCGAAAUAAAAUAACUCAGUCUGCAGCCCCAGGCCGGCCCAACAGAGGAUUGAGCAUCA
B8: chr1:230709994:230710823:-|CDS|ENSG00000135744|control|control|control (ssRNA)
RNA: GGGAGUUCUACAGUCCGACGAUCAAGGUCCUGUCUGCCCUGCAGGCUGUACAGGGCCUGCUAGUGGCCCAGGGCAGGGCUGAUAGCCAGGCCCAGCUGCUGCUGUCCACGGUGGUGGGCGUGUUCACAGCCCCAGGCCUGCACCAACAGAGGAUUGAGCAUCA
B9: chr19:12699869:12699961:-|3pUTR|ENSG00000105576|msi1_unk|FALSE|overlapping (ssRNA)
RNA: GGGAGUUCUACAGUCCGACGAUCGAGGGUGGGGGUGUAGUUACUUCCCAGUUGGCCAGAAAACUGGGCCUUGCAGACCCCCUUAGCAUUUUUUCCCUUUUUUUCCUUCCCUGCUUUCUACUUCUUUGGGGAGCCCCUUGUGUUCAACAGAGGAUUGAGCAUCA
B10: chr22:27980698:27980799:-|3pUTR|ENSG00000100154|unk|total|mutant (ssRNA)
RNA: GGGAGUUCUACAGUCCGACGAUCUAACCAUUAAUUUAUUUUAUAAAGAAAGGAAAUGCUGAAAGUCGUAUCCGUACUGAGUUCCGUUGGAGAAUUCCGAUAAGUAAGUAUCUUUCCGGUAAUUCUAAAAUUAAAAUCCUACCCCAACAGAGGAUUGAGCAUCA
B11: ENSG00000070961:be:win_6151|3pUTR|ENSG00000070961|bound_else_gene|NA|bound_elsewhere_windowed (ssRNA)
RNA: GGGAGUUCUACAGUCCGACGAUCCAAUCACUUUUUCUCUUUUAUCCUCUAACCAAAAAAUUGUUUAAUUUUGCAUCCCAAAUGUUUUUAAUCUUUGUAUAUUUUUUAAAAAUCCUUUUCUCCUCAUCAUUGCCUUUUUUGUGGCAACAGAGGAUUGAGCAUCA
B12: chr19:10683396:10683509:+|CDS|ENSG00000129351|unk|FALSE|bound_elsewhere (ssRNA)
RNA: GGGAGUUCUACAGUCCGACGAUCGUUCCAAGGUGCUGGUUCCAACAAAAAGGUGGCGAAGGCCUACGCUGCUCUUGCUGCCCUAGAAAAGCUUUUCCCUGACACCCCUCUCGCCCUUGAUGCCAACAAAAAGAAGAGAGCCCCCAACAGAGGAUUGAGCAUCA
B13: chr9:14618660:14618761:-|3pUTR|ENSG00000175893|msi1|FALSE|unique (ssRNA)
RNA: GGGAGUUCUACAGUCCGACGAUCUUAGCUUUCCACAGGGAUUUCUUGAAAUGCUUUUGUUAUUAAACUCAAAAGGCAGUGAUUAGGAUGAAAUAAUUGUACAUAAUUUAUUUUAGUACUGACAGUGUUACAGAUUCUAAUUUACAACAGAGGAUUGAGCAUCA
B14: chr3:17009782:17009883:+|CDS|ENSG00000154822|unk|FALSE|unique (ssRNA)
RNA: GGGAGUUCUACAGUCCGACGAUCAAUUCAAUGGUUGAGGGUUCAGAACUCAAAAAGGUUCGCUCCAACUCUAGAAUUUAUCAUAGGUACUUUUUACUGGAUGCUGACAUGCAGAGCCUAAGGUGGGAGCCAUCUAAGAAGGAUCAACAGAGGAUUGAGCAUCA

What follows are binders tested against T1, UNK ZnF1-6 (called full-length) (human, UniProt Q9C0B0 30-357) (assay: nsRBNS (natural sequence RNA bind-n-seq); RBNS binding buffer (assumed for nsRBNS): 25 mM Tris pH 7.5, 150 mM KCl, 3 mM MgCl2, 0.01% Triton X-100, 500 ug/ml BSA, 20 U/ml SUPERase-In, 4 C; UNK is unkempt and MSI1 is Musashi-1; names of the RNAs are library labels; protein concentration not given here; high values mean tight binding).
T1 sequence: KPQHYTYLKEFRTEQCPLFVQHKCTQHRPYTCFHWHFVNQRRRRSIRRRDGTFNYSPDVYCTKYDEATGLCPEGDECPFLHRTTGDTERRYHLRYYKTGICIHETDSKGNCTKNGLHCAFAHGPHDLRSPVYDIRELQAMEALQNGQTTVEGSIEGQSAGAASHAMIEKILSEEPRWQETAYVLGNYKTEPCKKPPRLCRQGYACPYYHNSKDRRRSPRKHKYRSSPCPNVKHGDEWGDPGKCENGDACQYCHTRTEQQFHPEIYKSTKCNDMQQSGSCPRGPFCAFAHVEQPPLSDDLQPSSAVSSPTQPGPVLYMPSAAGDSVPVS
For B1, the binding signal was 2.08 enrichment R. For B2, the binding signal was 1.85 enrichment R. B3 gave a binding signal of 0.812 enrichment R. Work on B4 yielded a binding signal of 0.348 enrichment R. Binder B5 has a binding signal of 0.406 enrichment R. With B6 the binding signal was 0.56 enrichment R. B7 gave a binding signal of 1.39 enrichment R. B8 was tested, and the binding signal was 0.572 enrichment R. B9 gave a binding signal of 15.5 enrichment R. In the case of B10, the binding signal is reported as 0.76 enrichment R. B11 was tested, and the binding signal was 4.78 enrichment R. Binder B12 has a binding signal of 2.51 enrichment R. For B13, the binding signal was 0.961 enrichment R. Binder B14 has a binding signal of 1.84 enrichment R.
